Here are results for one molecule from US20220177544A1 (BIONTECH CELL AND GENE THERAPIES, published 2022).

Holding throughout (assay): cell-based or functional assay
The target of assay [1] is T1, hIL2RA_mut3 (E29K) (Homo sapiens, UniProt P01589 22-272).
T1 sequence: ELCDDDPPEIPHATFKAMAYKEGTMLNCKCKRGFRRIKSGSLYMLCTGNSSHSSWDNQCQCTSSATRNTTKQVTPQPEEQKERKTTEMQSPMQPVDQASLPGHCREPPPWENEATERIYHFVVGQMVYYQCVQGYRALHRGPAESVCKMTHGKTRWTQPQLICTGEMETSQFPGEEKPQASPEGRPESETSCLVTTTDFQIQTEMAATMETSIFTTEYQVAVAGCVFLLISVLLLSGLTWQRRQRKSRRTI

Assay [2] addresses T2, hIL2RA (interleukin 2 receptor subunit alpha, CD25), wild type (Homo sapiens, UniProt P01589 22-272).
T2 sequence: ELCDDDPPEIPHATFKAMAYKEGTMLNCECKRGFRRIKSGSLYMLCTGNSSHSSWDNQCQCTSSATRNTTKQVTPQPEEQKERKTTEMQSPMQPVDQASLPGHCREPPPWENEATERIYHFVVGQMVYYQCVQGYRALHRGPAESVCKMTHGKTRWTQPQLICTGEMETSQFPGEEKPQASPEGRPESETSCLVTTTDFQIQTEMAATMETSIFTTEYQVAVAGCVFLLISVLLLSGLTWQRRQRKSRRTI

In assay [3] the target is T3, hIL2RA_mut2 (K38E) (Homo sapiens, UniProt P01589 22-272).
T3 sequence: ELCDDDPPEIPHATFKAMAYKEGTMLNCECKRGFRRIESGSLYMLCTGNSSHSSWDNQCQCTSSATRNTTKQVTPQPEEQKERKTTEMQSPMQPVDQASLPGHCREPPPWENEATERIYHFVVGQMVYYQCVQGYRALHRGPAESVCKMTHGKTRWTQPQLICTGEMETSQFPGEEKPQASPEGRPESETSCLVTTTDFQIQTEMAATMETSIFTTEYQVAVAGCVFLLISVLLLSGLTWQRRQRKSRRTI

The target of assay [4] is T4, hIL2RA_mut4 (E1K, E29K, K38E) (Homo sapiens, UniProt P01589 23-272).
T4 chain: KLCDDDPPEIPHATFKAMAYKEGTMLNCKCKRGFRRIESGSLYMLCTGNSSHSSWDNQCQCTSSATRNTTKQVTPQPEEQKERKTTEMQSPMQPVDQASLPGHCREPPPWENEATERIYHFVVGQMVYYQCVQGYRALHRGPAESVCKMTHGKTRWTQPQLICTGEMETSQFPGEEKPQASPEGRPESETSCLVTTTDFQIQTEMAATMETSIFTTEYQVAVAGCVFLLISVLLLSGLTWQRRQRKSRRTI

In assay [5] the target is T5, hIL2RA_mut1 (E29K, K38E) (Homo sapiens, UniProt P01589 22-272).
T5 chain: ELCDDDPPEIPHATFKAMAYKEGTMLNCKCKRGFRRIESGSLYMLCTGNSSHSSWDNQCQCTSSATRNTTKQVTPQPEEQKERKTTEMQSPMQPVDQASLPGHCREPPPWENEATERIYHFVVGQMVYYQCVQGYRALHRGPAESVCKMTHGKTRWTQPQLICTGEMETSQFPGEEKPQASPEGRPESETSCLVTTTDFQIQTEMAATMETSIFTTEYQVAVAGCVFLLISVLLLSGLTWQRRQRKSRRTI

Assay [6] has as its target T6, intermediate-affinity IL2 receptor (IL2Rβγ) (human, UniProt P14784 27-551; P31785 23-369).
T6 sequence (looked up) 1: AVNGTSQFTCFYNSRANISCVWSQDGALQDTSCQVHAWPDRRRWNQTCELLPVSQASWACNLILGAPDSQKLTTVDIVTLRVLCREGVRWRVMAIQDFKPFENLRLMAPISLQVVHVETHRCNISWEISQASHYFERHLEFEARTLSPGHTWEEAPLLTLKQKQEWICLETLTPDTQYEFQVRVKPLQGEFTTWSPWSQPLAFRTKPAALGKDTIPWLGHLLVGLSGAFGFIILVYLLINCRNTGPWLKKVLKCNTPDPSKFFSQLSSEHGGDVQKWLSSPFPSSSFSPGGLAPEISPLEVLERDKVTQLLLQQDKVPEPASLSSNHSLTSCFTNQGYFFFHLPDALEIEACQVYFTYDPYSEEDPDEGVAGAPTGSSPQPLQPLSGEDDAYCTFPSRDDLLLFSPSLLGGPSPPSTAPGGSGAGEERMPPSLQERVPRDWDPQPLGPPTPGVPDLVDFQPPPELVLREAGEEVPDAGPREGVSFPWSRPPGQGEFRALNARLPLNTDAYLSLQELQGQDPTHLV
T6 sequence (looked up) 2: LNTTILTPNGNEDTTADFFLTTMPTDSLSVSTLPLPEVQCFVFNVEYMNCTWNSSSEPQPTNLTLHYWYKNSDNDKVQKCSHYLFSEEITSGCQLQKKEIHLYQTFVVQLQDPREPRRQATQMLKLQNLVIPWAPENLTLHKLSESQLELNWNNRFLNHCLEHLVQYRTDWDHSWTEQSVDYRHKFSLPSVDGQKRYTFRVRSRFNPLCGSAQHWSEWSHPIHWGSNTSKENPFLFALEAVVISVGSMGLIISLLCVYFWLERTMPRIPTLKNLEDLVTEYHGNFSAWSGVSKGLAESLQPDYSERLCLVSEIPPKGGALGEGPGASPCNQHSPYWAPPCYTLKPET

Assay [7] addresses T2, hIL2RA (interleukin 2 receptor subunit …). This is another data set of the same source.
Assay [8] concerns the target T1, hIL2RA_mut3 (E29K). This is another data set of the same source.
Assay [9] deals with T3, hIL2RA_mut2 (K38E). The source holds these as a separate data set.
Assay [10] has as its target T4, hIL2RA_mut4 (E1K, E29K, K38E).
For assay [11], the target named is T5, hIL2RA_mut1 (E29K, K38E).

B1: hAlb-hIL2 (ligand)
chain: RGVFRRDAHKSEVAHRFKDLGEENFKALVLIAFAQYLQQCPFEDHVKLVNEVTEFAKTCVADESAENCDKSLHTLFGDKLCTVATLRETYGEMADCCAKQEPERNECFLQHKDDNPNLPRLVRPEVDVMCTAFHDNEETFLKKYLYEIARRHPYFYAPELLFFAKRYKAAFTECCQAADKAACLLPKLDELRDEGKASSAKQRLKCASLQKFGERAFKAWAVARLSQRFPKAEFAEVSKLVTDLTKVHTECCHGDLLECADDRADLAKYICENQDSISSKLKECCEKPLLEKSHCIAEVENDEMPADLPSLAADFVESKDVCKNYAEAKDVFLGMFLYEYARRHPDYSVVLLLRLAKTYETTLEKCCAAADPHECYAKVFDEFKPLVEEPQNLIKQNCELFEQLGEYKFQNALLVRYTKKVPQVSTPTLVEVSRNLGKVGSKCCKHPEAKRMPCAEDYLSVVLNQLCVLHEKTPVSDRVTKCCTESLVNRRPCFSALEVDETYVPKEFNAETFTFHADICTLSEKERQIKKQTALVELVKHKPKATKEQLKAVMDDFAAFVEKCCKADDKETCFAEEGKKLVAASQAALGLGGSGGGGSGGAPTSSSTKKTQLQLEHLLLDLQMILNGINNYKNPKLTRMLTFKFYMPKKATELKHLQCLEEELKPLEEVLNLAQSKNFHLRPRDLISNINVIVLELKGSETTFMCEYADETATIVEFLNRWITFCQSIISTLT
As to B1, the “EC50 [%-supernatant], STAT5 phosphorylation on CD8+ T cells electroporated with hIL2RA_mut3” value with hIL2RA_mut3 (E29K) [1] was 0.069 %-supernatant. Moreover, the “EC50 [%-supernatant], STAT5 phosphorylation on CD8+ T cells electroporated with hIL2RA” value in assay [2] amounted to 0.0067 %-supernatant. For the same molecule, the “EC50 [%-supernatant], STAT5 phosphorylation on CD8+ T cells electroporated with hIL2RA_mut2” value with hIL2RA_mut2 (K38E) [3] is 0.107 %-supernatant. Also, the “EC50 [%-supernatant], STAT5 phosphorylation on CD8+ T cells electroporated with hIL2RA_mut4” value in assay [4] came to 7.76 %-supernatant. For the same molecule, the “EC50 [%-supernatant], STAT5 phosphorylation on CD8+ T cells electroporated with hIL2RA_mut1” value with hIL2RA_mut1 (E29K, K38E) [5] is 1.43 %-supernatant. Besides, the “EC50 [%-supernatant], proliferation of TF-1_IL2Rβγ cells (CellTiter-Glo)” value in assay [6] turned out to be 4.65 %-supernatant. The “EC50 [%-supernatant], STAT5 phosphorylation on CD4+CD25+ regulatory T cells (natural CD25)” value in assay [7] is 0.0175 %-supernatant. The “EC50 [%-supernatant], STAT5 phosphorylation on hIL2RA-electroporated CD8+ T cells” value in assay [7] is 0.0062 %-supernatant. Further, the “fold-increased potency on hIL2RA mutant versus hIL2RA wild-type electroporated CD8+ T cells (ratio of pSTAT5 EC50 values)” value with hIL2RA_mut3 (E29K) [8] stood at 0.097 fold; in the assay with hIL2RA_mut2 (K38E) [9], 0.063 fold; in assay [10], 0.001 fold; with hIL2RA_mut1 (E29K, K38E) [11] it was 0.005 fold.
